Structures are written as SMILES. In all, about 110,000 compounds were measured (“z-score”: median about -0.1, highest 2% from about 2 on). The list shows a part of the results. Active and inactive are the calls of the source.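 How the source made its calls: active means z-score in the third read window above 3 or below -3; inactive means the rest.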

Data on 110 molecules can be found in PubChem BioAssay AID488969 (Vanderbilt High Throughput Screening Facility, 2010).

The experiment addresses Metabotropic glutamate receptor 8 (Rattus norvegicus) (UniProt P70579). Put plainly: rat mGluR8 modulators via GIRK flux, primary screen, cell-based, thallium flux, HTS (AID 488969). Particulars: HEK293 rat mGluR8, GIRK (G protein-gated inwardly rectifying potassium channel) thallium flux, FluoZin2; at 10 µM; stronger effect = higher value; submaximal glutamate (EC20) added with thallium.
UniProt P70579, sequence (P70579 whole entry, looked up): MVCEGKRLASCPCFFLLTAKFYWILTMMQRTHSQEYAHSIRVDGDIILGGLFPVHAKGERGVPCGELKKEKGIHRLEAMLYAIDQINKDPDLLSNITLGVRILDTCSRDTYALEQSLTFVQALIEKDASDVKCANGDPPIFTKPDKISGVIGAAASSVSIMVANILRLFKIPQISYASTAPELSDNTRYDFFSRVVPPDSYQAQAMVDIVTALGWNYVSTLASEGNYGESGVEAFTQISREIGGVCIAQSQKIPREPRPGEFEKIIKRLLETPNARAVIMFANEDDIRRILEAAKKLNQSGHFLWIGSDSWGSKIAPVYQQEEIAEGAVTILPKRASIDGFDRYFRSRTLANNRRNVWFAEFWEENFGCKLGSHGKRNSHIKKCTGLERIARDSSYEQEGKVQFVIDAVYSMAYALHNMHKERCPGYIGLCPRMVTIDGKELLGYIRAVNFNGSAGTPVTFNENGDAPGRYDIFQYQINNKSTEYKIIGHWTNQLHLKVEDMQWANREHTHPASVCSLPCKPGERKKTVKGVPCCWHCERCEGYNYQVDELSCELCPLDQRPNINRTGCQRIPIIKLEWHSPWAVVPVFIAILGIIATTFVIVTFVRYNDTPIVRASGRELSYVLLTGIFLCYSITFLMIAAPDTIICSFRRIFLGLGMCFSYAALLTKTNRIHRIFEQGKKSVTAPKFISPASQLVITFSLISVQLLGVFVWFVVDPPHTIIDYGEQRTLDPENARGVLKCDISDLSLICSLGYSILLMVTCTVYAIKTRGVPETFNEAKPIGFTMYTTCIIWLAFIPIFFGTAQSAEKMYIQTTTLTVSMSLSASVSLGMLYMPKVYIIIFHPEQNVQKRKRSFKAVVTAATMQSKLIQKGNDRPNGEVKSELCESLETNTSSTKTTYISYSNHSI
`COc1cccc(-n2c(C)n[nH]c2=O)c1` registered a z-score of 1.2.

Take `CCOc1ccc(N2C(=O)CS/C2=C(\C(Cl)=C(Cl)Cl)[N+](=O)[O-])cc1`: the z-score is -0.279.

For the molecule `CC(/C=C1\SC(=S)N(CCCC(=O)Nc2ccc(C(=O)O)c(O)c2)C1=O)=C\c1ccccc1`, the z-score came to 1.3.

Turning to `CCOC(=O)c1ccc(NC(=O)CCc2nc(-c3ccc(C)cc3)no2)cc1`, the z-score was 0.00119.

Consider `CCOC(=O)c1nnn(-c2nonc2N)c1COc1ccc(F)cc1`, for which the z-score was -0.0888.

In turn, `O=C(NC1CCCC1)C(c1ccc(F)cc1)N(Cc1ccccc1Cl)C(=O)CCl` (stereo not given) gave a z-score of -0.0267.

On to `CCc1n[nH]c2c1C(=O)CC(C)(C)C2`, for which the z-score is -0.313.

Turning to `C/C(CC(=O)NCc1ccco1)=N\NC(=O)Cc1ccccc1`, the z-score is 0.118.

As to `O=C(Nc1ccccc1F)c1ccc(CNS(=O)(=O)c2cccc(C(F)(F)F)c2)cc1`, the z-score came out at 0.0314.

The molecule `CCOC(=O)c1c(C)[nH]c(C(=O)Cn2nnc(-c3ccc(Cl)cc3)n2)c1C` had a z-score of -0.242.

`COc1ccc(C(=O)Nc2ccc(S(=O)(=O)N3CCc4ccccc43)cc2)cc1` showed a z-score of 0.257.

Take `CCC(=O)N[C@@H]1CC(C(C)(C)NC(=O)CC)CC=C1C` (stereo not given in full): the z-score is -0.0475.

In turn, `CCCc1cc(C(=O)Nc2ccc(C)cc2)no1` yielded a z-score of 0.229.

`COC(=O)c1cn(C)c2ccc(S(=O)(=O)N3CC(C)CC(C)C3)cc2c1=O` (stereo not given) had a z-score of -0.281.

The molecule `c1ccc(SCCOCCn2cncn2)cc1` came in with a z-score of -0.483.

Molecule `CCOC(=O)c1cc2c(C(F)(F)F)cc(-c3cccnc3)nc2o1` gave a z-score of -0.353.

`COc1ccc(C2Nc3ccccc3C(=O)N2c2ccc(C)cc2)cc1Cn1cc([N+](=O)[O-])cn1` (stereo not given): the z-score was -0.254.

Consider `CC1CCCC/C1=N/Nc1ccc([N+](=O)[O-])cc1[N+](=O)[O-]` (stereo not given), for which the z-score is -0.242.

`O=C(O)CCCCCCNS(=O)(=O)c1ccccc1` returned a z-score of 0.646.

`O=C(Cc1ccccc1)Nc1nc(-c2cccs2)cs1`: the z-score is 2.99.

Take `COc1cccc(C(=O)CSc2nnc(-c3cc(OC)cc(OC)c3)o2)c1`: the z-score was 0.263.

Molecule `COCCOC(=O)c1c(C)oc2ccc(OC(=O)COc3c(F)c(F)c(F)c(F)c3F)cc12` came in with a z-score of -0.171.

`CCN(Cc1ccccc1)C(=O)CC1Oc2ccccc2NC1=O` (stereo not given): the z-score is -0.296.

`NC1=NC(=Nc2ccc(Cl)cc2)c2ccccc21` returned a z-score of -0.537.

On to `Cc1ccc(CNC(=O)CCc2nc(-c3cccs3)no2)cc1`, for which the z-score was -0.128.

`CCOC(=O)Nc1ccc2c(c1)N(C(=O)N1CCN(C)CC1)c1ccccc1S2` came in with a z-score of 1.42.

Molecule `O=C(c1ccccn1)c1cc2ccccc2n1S(=O)(=O)c1ccccc1` showed a z-score of -0.502.

`COc1ccc(CN(C)C(=O)COC(=O)c2ccc3c(c2)OCO3)cc1OC` showed a z-score of 0.00886.

`COc1ccc(OC)c(NC(=O)CN2C(=O)NC3(CCOc4ccccc43)C2=O)c1` (stereo not given) yielded a z-score of -0.196.

With `O=[N+]([O-])c1cc([N+](=O)[O-])c(N2CCCCCC2)cc1NCCO`, the z-score was -0.126.

On to `Cc1cccc(C(=O)Oc2ccc(/C=N/NC(=O)Cc3ccc([N+](=O)[O-])cc3)cc2)c1`, for which the z-score came to 0.0891.

Take `N#Cc1nc(Cc2cccc3ccccc23)oc1N1CCN(c2ccccc2)CC1`: the z-score is -0.301.

Turning to `CC(C)OC(=O)CSc1nnc(-c2ccc(O)cc2)n1Cc1ccccc1`, the z-score worked out at 0.78.

`C=CCOc1nc2c(c(=O)n(C)c(=O)n2C)n1Cc1ccc(Cl)cc1`: the z-score turned out to be 0.154.

`COc1ccc(S(=O)(=O)N(CC(=O)NCCCN(C)C)c2ccc(C)cc2)cc1OC`: the z-score was -0.419.

In turn, `Cc1cc(C)c(C)c(OCC(=O)N2CCOCC2)c1` came in with a z-score of -0.162.

As to `CN(C)S(=O)(=O)c1cccc(NC(=O)c2cc3c(=O)n4ccccc4nc3s2)c1`, the z-score is -0.159.

For `O=C(CSc1nnc(-c2ccc(Cl)cc2Cl)n1C1CCCCC1)NC1CCS(=O)(=O)C1` (stereo not given), the z-score was -0.0533.

Take `CC(C)(C)c1ccc(C(=O)NC(=S)NCC2CCCO2)cc1` (stereo not given): the z-score was 1.62.

The molecule `COc1ccc(C(=O)NCCn2cc(SCC(=O)Nc3nnc(C)s3)c3ccccc32)cc1` had a z-score of 0.49.

`CN(CC(=O)OCC(=O)Nc1ccccc1)S(=O)(=O)c1ccc(Cl)cc1` gave a z-score of -1.07.

Consider `CCC(=O)Nc1ccc(N2CCN(Cc3ccccc3F)CC2)cc1`, for which the z-score was -0.191.

In turn, `Cc1nnc(SCc2ccc(F)cc2)s1` gave a z-score of 0.759.

Take `CCN(C(=O)Nc1ccccc1OC)c1c(N)n(Cc2ccccc2)c(=O)[nH]c1=O`: the z-score is -0.178.

In turn, `COc1cc2[nH]c(=O)c(C(=O)NCCCN3CCCCC3)c(O)c2cc1OC` came in with a z-score of 0.35.

In turn, `CCCCNC(=O)c1ccccc1NS(=O)(=O)c1ccc2c(c1)OCCO2` registered a z-score of 0.243.

`CCOC(=O)c1ccc(Oc2c(C)oc3c(CN4CCN(C)CC4)c(O)ccc3c2=O)cc1` returned a z-score of -0.486.

Take `Cc1ccc(-n2c(SCc3ccc([N+](=O)[O-])cc3)nc3ccccc3c2=O)cc1`: the z-score was -0.163.

Turning to `CCN(CC)C(=O)CN(c1cccc(OC)c1)S(=O)(=O)c1ccc(C)cc1`, the z-score turned out to be 0.331.

`Cc1ccc(C(=O)NNC(=S)Nc2cccc(Cl)c2Cl)cc1[N+](=O)[O-]` displayed a z-score of -1.23.

As for `CCN1CCN(C(=S)NCC(C)C)CC1`, the z-score was determined as 0.198.

In turn, `Cc1cccc(C)c1N1CCc2cn[nH]c21` had a z-score of -0.273.

`COc1ccc(NC(=O)CN2c3cccc4cccc(c34)S2(=O)=O)c(OC)c1` had a z-score of -1.14.

The molecule `CCCCS/C(N)=N/N=C/c1ccccc1O` yielded a z-score of -0.147.

`Cc1cc(C)n(-c2ccc(C(=O)Nc3ccc(C)c(S(=O)(=O)N(C)C)c3)cc2)n1` returned a z-score of -0.491.

`Cc1nc(SCC(=O)Nc2cc(C)on2)c2c3c(sc2n1)CCCC3` had a z-score of 2.03.

As for `O=C(COC(=O)/C=C/c1cccc(C(F)(F)F)c1)NCc1ccc(F)cc1`, the z-score was -0.0886.

In turn, `C/C(=N\OC(=O)c1ccccc1)c1cc(-c2ccc(Cl)cc2)no1` had a z-score of -0.0857.

In turn, `COc1ccccc1NC(=O)c1ccc(N)cc1` registered a z-score of 0.511.

In turn, `Cc1csc2nc(CNC(=O)C3CC=CCC3C(=O)O)cn12` (stereo not given) returned a z-score of -0.0699.

For `COc1ccc(-n2nnc3c(SCC(=O)c4ccccc4)ncnc32)cc1`, the z-score was -0.292.

In turn, `COc1ccc(OC)c(S(=O)(=O)N2c3cc(F)ccc3CCC2C)c1` (stereo not given) registered a z-score of -0.709.

Consider `CN(C)c1ccc(-c2nc3ccccn3c2/N=C/c2ccc(Br)cc2)cc1`, for which the z-score was -1.35.

Take `Oc1ccc(F)cc1-c1cc(-c2ccc3c(c2)OCCO3)n[nH]1`: the z-score was found to be 0.0053.

`O=S(=O)(C(=CNc1ccccc1)S(=O)(=O)c1ccccc1)c1ccccc1` yielded a z-score of -0.251.

Consider `Cc1ccccc1OC/C(O)=C(\C#N)c1nc2ccccc2[nH]1`, for which the z-score was -0.143.

The molecule `Cc1cc(=O)[nH]c(-n2[nH]c3c(c2=O)CCCC3)n1` yielded a z-score of 0.145.

Molecule `S=c1[nH]ccn1-c1cccc(Cl)c1` returned a z-score of 2.29.

On to `O=C(Cn1cnc2ccccc21)N/N=C/C(Br)=C/c1ccccc1`, for which the z-score is -0.123.

Turning to `CCOCCCNC(=O)COc1ccc(OC)cc1`, the z-score is -0.32.

The molecule `CCOC(=O)c1cc2sccc2n1CC(=O)N1CCN(C(=O)c2ccco2)CC1` gave a z-score of -0.106.

As for `COc1ccc2[nH]c3c(c2c1)CN(C)CC3`, the z-score was found to be 0.187.

Take `O=c1[nH]cnc2sc(-c3ccccc3)cc12`: the z-score is -0.157.

`CC1(C)C(=O)Nc2ccccc2N1C(=O)CSc1nnc2c(Cl)cc(Cl)cn12` gave a z-score of 0.00651.

In turn, `COc1ccc(C(=O)COc2ccc(NC(C)=O)cc2)cc1` registered a z-score of -0.0378.

`O=C(/C=C/N1CCOCC1)c1ccc(-c2ccccc2)cc1` yielded a z-score of -0.364.

For the molecule `COc1c2c(nc3ccccc13)OC(C(C)(O)CO)C2` (stereo not given), the z-score was 0.415.

The molecule `COc1cccc(C2CC(=O)N3CN(c4cccc(Cl)c4C)CSC3=C2C#N)c1OC` (stereo not given) yielded a z-score of -0.00782.

Consider `COc1cccc(C(=O)Nc2ccc(Cl)c(C(F)(F)F)c2)c1`, for which the z-score was determined as 0.0679.

On to `Cc1ccc(S(=O)(=O)CCC(=O)Nc2ccc3nc(C)sc3c2)cc1`, for which the z-score is -0.0953.

The molecule `O=C(O)c1c2c(nc3ccc(F)cc13)CCC2` returned a z-score of -0.176.

Molecule `Cc1ccc(C(=O)N2CCN(S(C)(=O)=O)C2)cc1` yielded a z-score of 1.04.

`CCCc1[nH][nH]c(=O)c1C(c1ccc(Br)cc1)C(C#N)C#N` (stereo not given) registered a z-score of -1.32.

In turn, `CCCC1=C([O-])C2N=CC=CC2=[N+](c2ccccn2)C1=O` (stereo not given) showed a z-score of -0.187.

The molecule `O=C1CCCC2=C1C1c3ccccc3C(=O)N1c1ccc(C(=O)c3ccccc3)cc1N2` (stereo not given) registered a z-score of -0.774.

Take `CCc1ccc(NC(=O)CCS(=O)(=O)c2cccc3nsnc23)cc1`: the z-score came out at 0.474.

`COc1ccccc1/C=C/C(=O)OCC(=O)NCc1ccco1` had a z-score of 0.0676.

As to `Oc1cccc(Nc2ncnc3ccccc23)c1`, the z-score is 0.297.

Turning to `COc1cccc(N2CCN(C3C4CC5CC(C4)CC3C5)CC2)c1` (stereo not given), the z-score was 0.173.

In turn, `Clc1ccc(C2C3=C(Nc4ncnn42)c2ccccc2CC3)cc1` (stereo not given) had a z-score of -1.05.

`CS(=O)(=O)N(Cc1ccco1)CC(O)Cn1c2ccccc2c2ccccc21` (stereo not given) returned a z-score of 0.358.

Take `Cc1cc(C(=O)COc2ncnc3sccc23)c(C)n1C`: the z-score stood at 2.04.

As for `Cn1c(-c2ccc(F)cc2)cnc1NCc1cc2c(cc1[N+](=O)[O-])OCO2`, the z-score is -0.307.

Regarding `Cc1nc2ccccc2c(-c2ccccc2)c1C(=O)c1ccccc1`, the z-score is -2.03.

For `CC(C)CC(=O)N1CCN(c2ccc([N+](=O)[O-])cc2Cl)CC1`, the z-score was -0.00677.

Turning to `Cc1ccc(O)c(-c2cc(C(F)(F)C(F)F)[nH]n2)c1`, the z-score is -0.574.

As to `CC1=C(C)C(c2ccccc2)NC(=S)N1` (stereo not given), the z-score is active: 3.39.

Regarding `Cc1ccc(CNCCC2=CCCCC2)cc1`, the z-score was 2.07.

With `Cc1ccc(-c2nnc(-n3nc(C)cc3C)c3ccccc23)cc1`, the z-score is -0.24.

In turn, `O=C(CN1CCN(S(=O)(=O)c2ccccc2)CC1)Nc1ccc([N+](=O)[O-])cc1` came in with a z-score of -0.0738.

On to `CCn1c(SCC(=O)Nc2cccc(C)n2)nnc1-c1ccco1`, for which the z-score is -0.136.

The molecule `Cc1nn(C)c(C)c1S(=O)(=O)N1CCC(C(=O)NC2CCCc3ccccc32)CC1` (stereo not given) gave a z-score of 0.592.

Consider `Cc1ccc(-c2cc(C(=O)N/N=C/c3c(C)nn(-c4ccccc4)c3C)[nH]n2)cc1`, for which the z-score is -0.454.

For the molecule `COc1ccc(Cc2nnc(N)s2)cc1OC`, the z-score was -0.214.

As for `O=C(Nc1ccc(Cl)cn1)c1cnn2cccnc12`, the z-score was 0.534.

Molecule `CC(C)[C@H](NC(=O)c1ccccc1F)C(=O)Nc1nc2c(s1)CCCC2` came in with a z-score of 2.3.

For the molecule `CCn1c(C)c(C(C)=O)c(N2CCC(C(N)=O)CC2)nc1=S`, the z-score stood at 0.288.

For `COc1ccc([N+](=O)[O-])cc1/C=N/NC(=O)/C(=C\c1cccs1)NC(=O)c1ccccc1`, the z-score was -0.485.

`CCN(CC)CCCN1C(=O)c2oc3ccccc3c(=O)c2C1c1cccc(OC)c1OC` (stereo not given) registered a z-score of 0.625.

`NS(=O)(=O)c1ccc(NC(=S)N2CCN(c3ccc(Cl)c(Cl)c3)CC2)cc1` displayed a z-score of 0.168.
